Laboratory results published in ChEMBL document CHEMBL1157539, “Thousands of chemical starting points for antimalarial lead identification” (Nature, 2010).
In all, about 13,000 compounds were measured (“IFI”: median about 4, highest 2% from about 17 on). Some of the results follow.

Assay: GSK_TCMDC: Inhibition Frequency Index (IFI). The number of non-kinase HTS assays where a compound showed > 50 % inhibition, expressed as a percentage of the number of such assays in which the compound was tested (-0 is zero)
Type: functional

Structure (SMILES) | IFI [%]
O=C(/C=C/c1ccc(I)cc1)NCCCCCN1CCC(c2c[nH]c3ccccc23)CC1 | 6.29
COC(=O)c1ccc(CCC(C)NCC(O)c2cccc(Cl)c2)cc1 (centres undefined) | 2.88
N=C(N)Nc1ccc(OCCCCCOc2ccc(NC(=N)N)cc2)cc1 | 3.13
N=C1N=C(N)NC2(CCCCC2)N1OCCCOc1cccc2ccccc12 | 9.16
CN(C)CCNCc1nc(-c2ccc3c(Nc4ccc(Oc5ccccc5)cc4)ccnc3c2)cs1 | 5.19
Cc1nc2nc(N)nc(N)c2c(C)c1Cc1cccc(F)c1 | 2.92
Cc1cc(NC(=O)c2coc3cc(F)c(N4CC(C)N(C)C(C)C4)cc23)cnc1-c1ccc(C#N)cc1 (centres undefined) | 3.62
Cc1cc(-c2cc(Cl)ccc2Cl)no1 | 0
CCC1(C)CC(CCNCc2ccccc2O)(c2ccccc2OC)CCO1 (centres undefined) | 2.13
CCOc1cc(Cl)c(C(C)NC(=O)c2cccc(OC)c2)cc1OCC (centres undefined) | -0
Cc1nc(-c2cccc(Nc3nccc(NCC(O)c4ccccc4C)n3)c2)cs1 (centres undefined) | 13.6
COCCNCc1ccc(-c2cccc(CN(C(=O)NCCc3ccccc3)C3CCN(Cc4ccccc4)CC3)c2)cc1 | 7.35
CC(C)CC(NC(=O)c1cc2ccccc2s1)C(=O)N1CCCCCC1c1ccc(C(C)(C)C)cc1 (centres undefined) | 0.93
Cc1c(Cl)ccc2sc(N3CCN(C(=O)c4ccc([N+](=O)[O-])o4)CC3)nc12 | 2.27
N#Cc1ccc2c(c1)CN(CCCCNC(=O)c1ccc(-c3ccccc3)cc1)CC2 | 2.16
c1cc(-c2ccc(CNCc3ccsc3)cc2)cc(-c2nc3ccccc3[nH]2)c1 | 7.69
CCOC(=O)c1c(C)n(-c2ccc(Cl)cc2)c2ccc(OC(=O)C=Cc3ccccc3)cc12 | -0
Cc1ccc2c(=NN=Cc3ccc(Cl)cc3)cc(C)[nH]c2c1 | -0
CC(Cc1ccc(OCCN2CCN(c3cccc(Cl)c3)CC2)cc1)NCC(O)c1cccc(C(F)(F)F)c1 (centres undefined) | 17.2
Cc1[nH]c(C)c([N+](=O)[O-])c(=O)c1-c1ccc(Oc2ccccc2)cc1 | 1.89

Structure (SMILES) | IFI [%]
COc1ccc2nccc([C@@H](O)CN3CCC(NCc4ccc5c(c4)oc(=S)n5C)CC3)c2c1 | 3.65
Cc1cc(O)c(-c2ccc(S(=O)(=O)c3ccc(Cl)cc3)cc2)c(C)n1 | 0.77
CC(C)NCc1cccc(-c2ccc(-c3nc4ccccc4[nH]3)cc2)c1 | 2.97
FC(F)(F)c1cccnc1N1CCC(Nc2nc3cc(Cl)ccc3[nH]2)CC1 | 16.2
O=C(NCCCCN1CCC(c2cccc3ccccc23)CC1)c1ccc(NC(=O)c2ccc(Cl)cc2)cc1 | 3.7
CCN(CCCN1CCCCC1)c1cc(C)nc(Nc2ccc(C)cc2)n1 | 2.56
Cc1cc(N2CCOCC2)nc2ccc(NC(=O)c3ccc(Cl)c([N+](=O)[O-])c3)cc12 | 1.1
CN(Cc1ccncc1)C(Cc1ccccc1)C1CCN(Cc2ccc(O)c(Cl)c2)CC1 (centres undefined) | 5.26
CCN(CCCN1CCCCC1)c1cc(C)nc(Nc2ccc3c(c2)CCC3)n1 | 3.75
O=C(c1cccc(COc2ccc3c(c2)CCN(C2CCCC2)CC3)c1)N1CCN(c2ccncc2)CC1 | 4.32
COc1ccc2nccc([C@@H](O)CN3CCC(NC(=O)/C=C/c4ccc5[nH]c(=O)ccc5c4)CC3)c2c1 | 0
COc1ccc(-c2cnc(N)c(-c3ccc(O)c(OC)c3)c2)cn1 | 8.33
NC(=O)COc1c(C2CCN(CCCCNC(=O)c3ccc(-c4ccc(Cl)cc4)c(O)c3)CC2)ccc2c1CCCC2 | 13.8
CCCc1cccc(OC)c1OCCCON1C(N)=NC(N)=NC1(C)C | 4.51
O=C(Nc1cccc(Cl)c1Cl)N[C@H]1CCN(CCCCCNC(=O)C2CC2c2ccc(Cl)c(Cl)c2)C1 (some centres undefined) | 13.3
COc1ccc2nccc([C@@H](O)CN3CCC(NC(=O)C(c4cccs4)N4CCN(c5ccc(F)cc5)CC4)CC3)c2c1 (some centres undefined) | -0
CCCNCc1ccc(-c2ccc(CN(CCOC)C(=O)c3cnc(C)cn3)cc2)nc1 | 0
N=c1n(CCN2CCCCC2)c2ccccc2n1CC(O)c1cccc(Br)c1 (centres undefined) | 2.21
CCCCCCCCOc1c(OCC)cc(Cc2cnc(N)nc2N)cc1OCC | 0.76
CC(C)COc1ccc(Cl)cc1Cc1ccc(-c2nc3cc(F)c(F)cc3[nH]2)o1 | 13.7

Structure (SMILES) | IFI [%]
O=S(=O)(c1cc(Cl)sc1Cl)N(CCC(O)(C(F)(F)F)C(F)(F)F)Cc1cccc(O)c1 | 5.8
Cc1c(CN2CCCCC2)cccc1OCCCNc1nc(NCCc2ccc(O)cc2)nc(N2CCNCC2)n1 | 7.58
O=C(NC1CCCc2ccccc21)[C@@H]1CCCN1C(=O)c1ccc(O)c(-c2cccc([N+](=O)[O-])c2)c1 (some centres undefined) | 2.1
O=C1C[C@@H]([S+]([O-])Cc2nccs2)N1CCOCCCCCCc1ccc(Cl)cc1 (some centres undefined) | 5.26
Nc1c2c(nc3ccc(Oc4ccc(Br)cc4Br)cc13)CCCC2 | 6.21
CC1(C)N=C(N)N=C(N)N1OCCCOc1cccc(C(=O)O)c1 | 0.75
CC(=O)Nc1nc(C(=O)Nc2ccc(-c3cccc(-c4nc5cc(F)ccc5[nH]4)c3)cc2)cs1 | 6.09
Cc1ccc(NC(=O)c2cccc(N3CCN(c4ccncc4)CC3)c2)cc1F | 7.14
COc1ccc(-c2cccc(NC(=O)c3cccc(C#N)c3)c2)cc1CN1CCN(C)CC1 | 2.97
CN(C)CCCN(C)c1cccc2c1nc(-c1cccnc1)n2CCNCc1ccccc1 | 3.33
Cc1noc(-c2ccccc2)c1NC(=O)N1CCN(CCCCCCNC(=O)/C=C/c2ccc(Cl)c(Cl)c2)CC1 | 2.36
CC1(C)N=C(N)N=C(N)N1OCc1cccc(C#N)c1 | 2.17
FC(F)(F)c1ccc2[nH]c(-c3cccc(-c4ccc(CNCc5cnn(-c6ccccc6)n5)cc4)c3)nc2c1 | 1.64
CCCC(CNCc1cccc(C)c1)CNc1cc(=O)c2ccccc2[nH]1 (centres undefined) | 2.9
CN(CCc1ccccc1)c1ncc(-c2cccc(CNCCC3CCCN3C)c2)cn1 (centres undefined) | 10
CCOC(=O)C1=C(C)N=c2sc(=Cc3cc(Cl)ccc3O)c(=O)n2C1c1ccc2c(c1)OCO2 (centres undefined) | 2.11
CCCN(C(=O)c1ccccc1C)c1nnc(-c2ccccc2C)s1 | 4.39
CC[C@H](NC(=O)c1ccc(NC(=O)OC(C)(C)C)cc1)C(=O)N[C@@H](CO)C(=O)NCCCCc1ccccc1 | 2.84
Cc1nc2ccc(-c3ccc(OC(F)(F)F)cc3)cc2c(O)c1C#N | 1.82
